{"source": "paper PMC5575113", "about": "“Creating the Functional Single-Ring GroEL-GroES Chaperonin Systems via Modulating GroEL-GroES Interaction” (Scientific Reports, 2017)", "binders": {"B1": {"name": "GroEL (natural protein)", "chain": "not shown"}}, "target": "T1, GroES (E. coli, UniProt P0A6F9 1-97, DyLight 650 NHS ester on amines (for MST))", "T1 sequence (looked up)": "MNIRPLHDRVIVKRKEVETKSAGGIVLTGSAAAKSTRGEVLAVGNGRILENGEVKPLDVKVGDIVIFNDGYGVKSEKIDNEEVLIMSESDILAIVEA", "experiment": "cell-based or functional assay"}
{"binder": "B1", "values": [{"measurement": "yield of GroEL-mediated MDH folding (native MDH 100%)", "value": "~80", "unit": "%"}]}
